{
  "source": "the supplement of paper PMC10126150",
  "note": "Values marked as one replicate rest on one cluster of the flow cell; about a third of the high ones do not repeat.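 Further: ATP exposure 15 min at 22 °C before imaging.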",
  "data": [
    {"system": "ATP", "test": "switch fluorescence ratio, 500 uM ATP over buffer (Cy3 cluster intensity, sum of 5 cycles each) (fold (ratio)); higher = stronger signal-on switching upon ATP binding; sequences stand for … in TCGTCGGCAGCGTCAGATGTGTATAAGAGACAGTTTTTTTTTTTTTTTTTTTTTTTTT…TC", "details": "aptamer strand: ATP DNA aptamer (quencher-CACCTGGGGGAGTATTGCGGAGGAAGG + anchor), 100 nM annealed; ATP concentration: 500 uM; one replicate", "summary_of_the_method": "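For every switch-domain sequence, the fluorescence ratio is the mean of per-cluster values, each being summed target-cycle Cy3 intensity over summed buffer-cycle Cy3 intensity. Clusters outside 100-1000 RFU were excluded. On a modified Illumina MiSeq flow-cell, the Cy3-labelled switching-strand clusters were annealed to 100 nM quencher-labelled ATP aptamer, imaged in selection buffer and then after 15 min with 500 uM ATP at 22 °C. Five such cycles were run, with NaOH stripping and re-annealing between them.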", "values": [
      {"sequence": "ACCGCGTTTG", "switch fluorescence ratio": 1.04},
      {"sequence": "CAAGTACCTG", "switch fluorescence ratio": 1.28},
      {"sequence": "CATAAGGGAG", "switch fluorescence ratio": 1.04},
      {"sequence": "GTTATATTA", "switch fluorescence ratio": 1.03},
      {"sequence": "GGGATCAACA", "switch fluorescence ratio": 0.99},
      {"sequence": "AGGACTGGAA", "switch fluorescence ratio": 1.04},
      {"sequence": "ACGAACAGCA", "switch fluorescence ratio": 1.11},
      {"sequence": "AAATCCCC", "switch fluorescence ratio": 1.05},
      {"sequence": "AGATGGGGTC", "switch fluorescence ratio": 0.995},
      {"sequence": "CACGAGACTG", "switch fluorescence ratio": 1.19},
      {"sequence": "ATGTAATGGG", "switch fluorescence ratio": 1.03},
      {"sequence": "CGGGCCCGGG", "switch fluorescence ratio": 0.979},
      {"sequence": "GCGTGAGGGT", "switch fluorescence ratio": 0.987},
      {"sequence": "ACGTACCTTT", "switch fluorescence ratio": 1.34},
      {"sequence": "CCGGCCGTA", "switch fluorescence ratio": 1.08},
      {"sequence": "ATGAACCTTG", "switch fluorescence ratio": 1.09},
      {"sequence": "ACTCAGAAAG", "switch fluorescence ratio": 1.1},
      {"sequence": "AACGAGTACC", "switch fluorescence ratio": 1.07},
      {"sequence": "TCAATAACAA", "switch fluorescence ratio": 1},
      {"sequence": "AGAGCCGTTC", "switch fluorescence ratio": 0.965},
      {"sequence": "AATGGGCTAC", "switch fluorescence ratio": 0.991},
      {"sequence": "CGATCGCTT", "switch fluorescence ratio": 2.03},
      {"sequence": "TATAGTCGTT", "switch fluorescence ratio": 1.05},
      {"sequence": "AAGAGGAGGT", "switch fluorescence ratio": 0.96},
      {"sequence": "CATCATTTCA", "switch fluorescence ratio": 0.988},
      {"sequence": "GTCTAGCAAG", "switch fluorescence ratio": 1.03},
      {"sequence": "AAGGCACCGG", "switch fluorescence ratio": 1.05},
      {"sequence": "TTCGCTCATT", "switch fluorescence ratio": 0.947},
      {"sequence": "TCTGGCCGGA", "switch fluorescence ratio": 1.04},
      {"sequence": "ATGAAACGCC", "switch fluorescence ratio": 1.09},
      {"sequence": "GAGAGTAGAA", "switch fluorescence ratio": 0.968},
      {"sequence": "GACCGTTCGA", "switch fluorescence ratio": 0.998},
      {"sequence": "TCAACTCAGG", "switch fluorescence ratio": 1.04},
      {"sequence": "ACGGTAATGG", "switch fluorescence ratio": 1.11},
      {"sequence": "AAATAAAGTT", "switch fluorescence ratio": 1.02},
      {"sequence": "CTTAGCGCGC", "switch fluorescence ratio": 1.03},
      {"sequence": "AAAACTGATA", "switch fluorescence ratio": 0.995},
      {"sequence": "GCGGCACTA", "switch fluorescence ratio": 1.06},
      {"sequence": "AGATCTATCT", "switch fluorescence ratio": 1},
      {"sequence": "ACATCCGTTA", "switch fluorescence ratio": 1.19},
      {"sequence": "TCCTCCCCCT", "switch fluorescence ratio": 2.27},
      {"sequence": "GAATGAATGG", "switch fluorescence ratio": 0.974},
      {"sequence": "TAAATGTGCT", "switch fluorescence ratio": 0.957},
      {"sequence": "ACTTTGTTG", "switch fluorescence ratio": 0.988},
      {"sequence": "TTTGAGCTCA", "switch fluorescence ratio": 1.06},
      {"sequence": "GCATCGCTGG", "switch fluorescence ratio": 0.954},
      {"sequence": "AAAGTTCCAA", "switch fluorescence ratio": 0.983},
      {"sequence": "GCACCGGTTG", "switch fluorescence ratio": 1.01},
      {"sequence": "GTAATATGAT", "switch fluorescence ratio": 0.987},
      {"sequence": "GATAAAATCG", "switch fluorescence ratio": 1.01},
      {"sequence": "CAGTTCAGCG", "switch fluorescence ratio": 1},
      {"sequence": "GCTGTACCAA", "switch fluorescence ratio": 1.04},
      {"sequence": "GACGATGATA", "switch fluorescence ratio": 1.07},
      {"sequence": "TTGAACAATG", "switch fluorescence ratio": 1.07},
      {"sequence": "AAAGAACCCG", "switch fluorescence ratio": 0.97},
      {"sequence": "GAACAGGGAG", "switch fluorescence ratio": 1.03},
      {"sequence": "TTTTCTTAAT", "switch fluorescence ratio": 1.01},
      {"sequence": "ATAATTGCTT", "switch fluorescence ratio": 0.976},
      {"sequence": "CACATTACTT", "switch fluorescence ratio": 1.32},
      {"sequence": "AATCGTCAC", "switch fluorescence ratio": 1.05},
      {"sequence": "GCACCTTACT", "switch fluorescence ratio": 1.73},
      {"sequence": "TATCGAAGCC", "switch fluorescence ratio": 1.05},
      {"sequence": "TACAATGCGG", "switch fluorescence ratio": 1.03},
      {"sequence": "TAGCGTGATA", "switch fluorescence ratio": 1.01},
      {"sequence": "ATATTTAGTG", "switch fluorescence ratio": 0.963},
      {"sequence": "TGGCCTCTTT", "switch fluorescence ratio": 0.987},
      {"sequence": "AGTAGAGTGC", "switch fluorescence ratio": 0.978},
      {"sequence": "CACAGTTGGA", "switch fluorescence ratio": 0.984},
      {"sequence": "TAGAAGCA", "switch fluorescence ratio": 1.14},
      {"sequence": "AATGACGAAG", "switch fluorescence ratio": 0.931},
      {"sequence": "CCCTCTATTG", "switch fluorescence ratio": 1.06},
      {"sequence": "ATAGGCGGTA", "switch fluorescence ratio": 1.01},
      {"sequence": "TCTGCACCGG", "switch fluorescence ratio": 1.01},
      {"sequence": "TCAGAACGGA", "switch fluorescence ratio": 1.06},
      {"sequence": "GAGTGTATTC", "switch fluorescence ratio": 0.953},
      {"sequence": "AATTTGATAT", "switch fluorescence ratio": 0.967},
      {"sequence": "GGGGACGGTC", "switch fluorescence ratio": 0.958}
    ]}
  ]
}
